In PubChem BioAssay AID894 (National Center for Advancing Translational Sciences (NCATS), 2007):
About 6,500 (4.3%) of roughly 150,000 compounds were called active. Inconclusive means that the source gave no clear call. Such entries were picked first, then a sample of the others. Calls follow the shape of the dose curve; as a rule, active = well fitted inhibition curve with a large enough effect (not every such curve was filed as active); inconclusive = small, poorly fitted or top-dose-only effect, or another doubt; inactive = no such curve, though single readings can be large or run the other way. Potencies of inconclusive entries are left out as doubtful fits.

Each compound was assayed against 15-hydroxyprostaglandin dehydrogenase [NAD(+)] (Homo sapiens) (UniProt P15428) (assay: qHTS Assay for Inhibitors of HPGD (15-Hydroxyprostaglandin Dehydrogenase)). Details: purified HPGD, NADH fluorescence kinetic, PGE2 substrate; activity change, negative = inhibition: hits give low values.
Sequence of UniProt P15428 (P15428 whole entry, looked up): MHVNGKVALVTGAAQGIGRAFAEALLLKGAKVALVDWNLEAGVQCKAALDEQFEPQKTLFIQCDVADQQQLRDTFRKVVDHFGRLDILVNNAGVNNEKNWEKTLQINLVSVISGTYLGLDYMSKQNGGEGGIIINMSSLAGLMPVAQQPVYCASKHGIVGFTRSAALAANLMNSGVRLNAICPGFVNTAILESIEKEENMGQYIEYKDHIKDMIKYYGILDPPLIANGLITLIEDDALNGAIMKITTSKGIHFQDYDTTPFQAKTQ
Outline: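 NADH formation kinetics: reaction with 30 uM PGE2 and 1 mM NAD+ (final), 20 nM enzyme, Tris-HCl pH 8 with Tween 20, after 15 min compound preincubation at room temperature. Fluorescence change, last versus first of five reads.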
% is scaled to controls: 0 for no effect and ±100 for the full control effect; potency is read from the fitted curve at half-maximal effect; tags tell the direction and shape of the fitted curve.

Compound | activity change, negative = inhibition | Potency
Cc1cc(C(N)=O)c2cc(Br)ccc2n1 | inactive: -7.98% | 
c1ccc2cc(-c3cc4ccccn4c3)ccc2c1 | inactive: -18.3% | 
CCOC(=O)c1c(C)n(C)c2ccc(OC)c(NC(=O)CN3CCSCC3)c12 | inactive: -7.61% | 
COc1ccc(OC)c(C2=NOC(C(=O)N3CCCc4ccccc43)C2)c1 (stereo unspecified) | inactive: -24.9% | 
Cc1ccc(O)c(NC(=S)NC(=O)CC(C)C)c1 | inactive: -8.76% | 
CCc1c(C)nc2ncnn2c1N1CCCC(C(=O)NCc2ccc3c(c2)OCO3)C1 (stereo unspecified) | inactive: -17.2% | 
O=C(Nn1cnc2ccccc2c1=O)C1CCCCC1 | inactive: -8.21% | 
C=C1CCC2C(CC2(C)C)C(=C)CC/C1=N/O (stereo unspecified) | inactive: -5.91% | 
Cc1ccc(C)c(NC(=S)NNC(=O)c2csc(C)c2C)c1 | inactive: -5.9% | 
Cc1ccccc1S(=O)(=O)Cc1ccc(C(=O)NCc2cccnc2)o1 | inactive: -7.72% | 
CC(C)Oc1ccc(C(=O)NCc2cccnc2)cc1 |  | inconclusive [inhibitor, partial curve]
COc1ccc2c(c1)c(CC(=O)Nc1cc(C)ccc1C)c(C)n2C(=O)c1ccc(Cl)cc1 |  | inconclusive [inhibitor, single point]
O=C(Nc1ccc(Cl)cc1C(=O)O)c1ccc2c(c1)C(=O)N(Cc1ccco1)C2=O |  | inconclusive [inhibitor, partial curve]
CN1C(=O)c2ccccc2N(C)C1c1cccs1 (stereo unspecified) |  | inconclusive [inhibitor, partial curve]
CCCOC(=O)c1ccc(Oc2c(-c3ccc(OCC)cc3O)n[nH]c2C)cc1 |  | inconclusive [inhibitor, partial curve]
COc1ccc2ccccc2c1/C=N/O |  | active: 7.08 µM
NC(=O)c1c(NC(=O)C2CCCO2)sc2c1CCCCC2 (stereo unspecified) |  | inconclusive [inhibitor, single point]
C=CCN(CC=C)S(=O)(=O)c1ccc(C(=O)Nc2sc3c(c2C(N)=O)CCCCC3)cc1 |  | inconclusive [inhibitor, partial curve]
CCN(CC)S(=O)(=O)c1cccc(-c2n[nH]c(=S)n2/N=C/c2ccc(Br)cc2)c1 |  | active: 14.1 µM
Cc1ccc2nc(-c3ccc(SCC(=O)Nc4ccc5c(c4)OCCO5)nc3)[nH]c2c1 |  | inconclusive [inhibitor, single point]
O=C(Nc1cccc(F)c1)c1ccccc1 |  | active: 31.6 µM
c1ccc(C2Nc3ccccc3-c3nc4ccccc4n32)cc1 (stereo unspecified) |  | inconclusive [inhibitor, partial curve]
Cc1cc(C(F)F)n2ncc(C(=O)NC3CCCCCC3)c2n1 |  | active: 22.4 µM
CC1CCc2nc3ccccc3c(C(=O)OCC(=O)N3CCc4ccccc43)c2C1 (stereo unspecified) |  | inconclusive [inhibitor, partial curve]
Nc1nc2nccc(-c3ccc(Cl)cc3)n2n1 |  | inconclusive [inhibitor, partial curve]
Cc1ccccc1NC(=O)CSCCO |  | inconclusive [inhibitor, partial curve]

Compound | activity change, negative = inhibition | Potency
CCOC(=O)c1c2ccc(OCC(=O)N/N=C/c3ccc(C)cc3)cc2n2ccccc12 |  | inconclusive [inhibitor, single point]
COc1ccc(C(=O)NCCCCCC(=O)N/N=C/c2ccco2)cc1OC |  | inconclusive [inhibitor, single point]
C=CCOc1c2ccc(C(=O)NC3CCCc4ccccc43)cc2nn1C (stereo unspecified) |  | inconclusive [inhibitor, partial curve]
COC(=O)C1=CN(C)C=C(C(=O)OC)C1c1ccc(Cl)cc1Cl |  | inconclusive [inhibitor, partial curve]
COc1ccccc1C(=O)NCc1ccc2c(c1)OCO2 |  | active: 14.1 µM
CCc1ccc2c(c1)c1nc(C)sc1n2CC |  | active: 28.2 µM
Cc1ccc(-c2n[nH]c3c2CCC3)cc1 |  | inconclusive [inhibitor, partial curve]
N#Cc1c(C(F)(F)F)cc(-c2ccco2)nc1SCc1ccccn1 |  | inconclusive [inhibitor, partial curve]
CCOC(=O)CCCSc1nnc(CCCCCN2C(=O)c3cccc4cccc(c34)C2=O)o1 |  | inconclusive [inhibitor, partial curve]
COc1ccc(/C=C/C(=O)c2cccs2)cc1OC |  | inconclusive [inhibitor, partial curve]
CCn1c(SCC(=O)N/N=C/c2ccc(C)o2)nnc1-c1ccccc1 |  | inconclusive [inhibitor, partial curve]
COc1ccccc1CNC(=O)c1cnccn1 | inactive: -10.8% | 
O=C(CSc1nc2ccc(Cl)cc2[nH]1)NCCc1ccccc1 | inactive: -2.89% | 
Cc1cc(NCCN(C)C)n2nc(-c3cccs3)cc2n1 |  | inconclusive [inhibitor, single point]
COCCCN1C(=O)c2ccc(C(=O)O)cc2C1=O | inactive: -2.85% | 
NC(=O)c1ccc(-c2nc(-c3ccc4c(c3)OCO4)c(-c3ccccn3)[nH]2)cc1 |  | inconclusive [inhibitor, partial curve]
NC(=O)C1CCN(C2=C(Cl)C(=O)c3ccccc3C2=O)CC1 |  | active: 14.1 µM
CCOC(=O)c1oc2ccccc2c1NC(=O)c1cc(OC)cc(OC)c1 |  | inconclusive [inhibitor, partial curve]
Cc1ccc2cccc(SCC(=O)NCC#N)c2n1 |  | inconclusive [inhibitor, partial curve]
c1cncc(C2Nc3ccccc3-c3nc4ccccc4n32)c1 (stereo unspecified) |  | inconclusive [inhibitor, partial curve]
COc1ccc(-c2cc(-c3cc(OC)ccc3O)[nH]n2)cc1 |  | inconclusive [inhibitor, partial curve]
Cc1ccc(NC(=S)NN(C)c2nc(C)cnc2C)cc1 | inactive: -6.06% | 
COC(=O)NNC(=S)Nc1cc(OC)ccc1OC |  | inconclusive [inhibitor, single point]
N#Cc1nc(-c2ccco2)oc1NCCc1ccccc1 |  | inconclusive [inhibitor, partial curve]
Cc1cccc2nc(=S)n(C(=O)c3ccco3)n12 |  | inconclusive [inhibitor, partial curve]
CCN(CC)C(=S)Nc1ccc(Cl)c(Cl)c1 | inactive: 0.669% | 

Compound | activity change, negative = inhibition | Potency
Cc1cc(C)c(C#N)c(SCC(=O)Nc2ccc(S(=O)(=O)Nc3onc(C)c3C)cc2)n1 |  | inconclusive [inhibitor, single point]
COc1ccc(OCCSc2nc(N)cc(N)n2)cc1 |  | active: 25.1 µM
O=C(Nc1ccc2c(c1)OCO2)c1ccc(Br)c(S(=O)(=O)N2CCCC2)c1 | inactive: -15.4% | 
Cc1ccccc1NC(=S)NCCc1ccccc1 |  | active: 25.1 µM
Cc1ccc(-c2[nH]nc3c2C(C)C(C#N)=C(N)O3)cc1 (stereo unspecified) | inactive: -10.9% | 
COc1ccc(CN2C(=O)/C(=C/c3ccncc3)SC2=S)cc1 | inactive: -19.9% | 
Cc1cc(SCC(=O)c2ccccc2)nc(SCC(=O)c2ccccc2)n1 |  | active: 28.2 µM
c1ccc(CCc2nn3c(-c4ccncc4)nnc3s2)cc1 |  | active: 5.01 µM
CCCCn1nc2cc(C(=O)NC3CCc4ccccc43)ccc2c1OCC (stereo unspecified) |  | inconclusive [inhibitor, partial curve]
O=S1(=O)c2cccc3cccc(c23)N1Cc1nnc(-c2ccccc2Br)o1 |  | inconclusive [inhibitor, partial curve]
COc1cc2c(cc1OC)C(C(=O)c1ccc(OC)c(OC)c1O)=NCC2 |  | inconclusive [inhibitor, single point]
CC1CCCCC1NC(=O)COC(=O)c1ccc(N(C)C)cc1 (stereo unspecified) |  | inconclusive [inhibitor, partial curve]
COc1ccc(OCC(=O)Nc2cccc(OC)c2)cc1 |  | inconclusive [inhibitor, partial curve]
Cc1cc(NCc2ccco2)nc2cc(O)ccc12 |  | inconclusive [inhibitor, partial curve]
Cc1cc(C)c(NC(=O)c2sc3nc4c(cc3c2N)C(=O)CC(C)(C)C4)c(C)c1 | inactive: -11.7% | 
O=C(OCCN1CCOCC1)c1ccc(OCCN2CCOCC2)cc1 | inactive: -8.83% | 
CCCC1=NN2C(=N)/C(=C\c3ccc(SCc4ccco4)o3)C(=O)N=C2S1 |  | active: 22.4 µM
COc1cc(/C=C/C(=O)O)ccc1O | inactive: -22.7% | 
COc1ccccc1N1CCN(C(=O)CSc2ncnc3scc(-c4ccccc4)c23)CC1 | inactive: -11.1% | 
CCNc1nc(C)c(CN(C(C)=O)c2ccccc2)nc1C#N |  | inconclusive [inhibitor, partial curve]
CC1=C(/C=C/C(C)=C/C=C/C(C)=C/C=C/C=C(C)/C=C/C=C(C)/C=C/C(=O)[C@]2(C)CC(O)CC2(C)C)C(C)(C)CC(O)C1 (stereo partly specified) | inactive: -4.76% | 
COC(CNC(=O)c1ccc2c(c1)nc(C)n2-c1ccc(F)c(F)c1)OC |  | active: 11.2 µM
CCOC(=O)N1CCN(C(=O)c2ccc3nc4ccc(Cl)cc4c(=O)n3c2)CC1 |  | inconclusive [inhibitor, single point]
CCOC(=O)C1C(=O)NC(SCC(=O)Nc2nccs2)=C(C#N)C1c1ccccc1OCC (stereo unspecified) |  | active: 12.6 µM
